According to the supplement of paper PMC11417369:
The other results are listed elsewhere or left out.

System: PF3D7_0420300 AP2 domain 1 (GST-tagged)
Experiment: gcPBM binding intensity (ln(normalized median fluorescence intensity)); higher = stronger DNA binding
Method in brief: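 Using an Agilent 4 × 180k array, primer-extended double-stranded 36-bp intergenic genomic probes and negative controls were exposed for 1 h to GST-fused P. falciparum DNA-binding domains expressed in E. coli. Binding was carried out in 1× PBS with 1% milk, 0.2 mg/ml BSA, 0.5% salmon testes DNA and 0.03% Triton X-100, and protein was detected with Alexa488 anti-GST antibody and a 488 nm scan. Binding intensity is the highest Masliner-normalised natural-log median intensity across replicate spots of either probe orientation.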

Sequence	gcPBM binding intensity (ln)
TATGATTCATAATAGTGTACGTAAAAATTGACTAGA [XGTACX_site5376]	9.23
ATTCAAAATAATAGAATTGTTAAAGTTGTAAATTGA [CACACA_negctrl_site727]	8.97
TATAATATGAACAGTACACACAAAATAAATTCGTAT [CACACA_site3586]	9.86
CTCAAACAATATTATATAATAAAGTACATATATATT [CACACA_negctrl_site446]	9.18
TATATTTTTATATTTTGTACATATAGTAAATATAAA [XGTACX_site4768]	8.98
AAAAATAAATATACATGTACTTAAAATAATCGAATA [XGTACX_site8432]	9.41
ACGTATCAAAAAATTTGTACATATATATATATATAT [XGTACX_site1024]	9.28
GAACAGAAAAAGAATAGTACATATATATATATATAT [XGTACX_site3700]	9.26
ATGATAGTATGTATGAGTACGAAAAAAAAAAATTAA [XGTACX_site32]	9.25
AAATGCAAATGATGATGTACATACAAAAATTAAATT [XGTACX_site5323]	9.42
ATATATATATATATTGTACACACATTTATGCATATA [CACACA_site9055]	9.69
TGTGGGAATAACCACACACACACACCCATATATATA [CACACA_site5876]	10.1
ATATATATATATATATGTACATATCACTTTAAATAT [XGTACX_site3859]	9.14
TTTTCTTAAAAAATCAAACACACATATATATATACA [CACACA_site2297]	9.28
TATCGTTATATAATATGTACATATAAAATTTAAATT [XGTACX_site1887]	9.1
AAAATGTATATATAAACATGCACACGTGGTTGTATA [TGCATGCA_site847]	9.56
TATATATTATGACCACCACACACCTATACGCATAAC [CACACA_site2447]	9.53
TCTTAAATTTCTTTATGTACATAATTAATATATTTA [XGTACX_site4456]	9.11
TTGAAATTAAATGACATACACACTATATTATATATT [CACACA_site3135]	9.32

Sequence	gcPBM binding intensity (ln)
AAAAATAAAGTAAAAGCATGCTAGTATATGGAAAAT [TGCATGCA_site486]	9.5
CATATACGCAAACACACACACATATATATATATATA [CACACA_site501]	10
AGGTATATATATTTATGTACTTAAAATGAGAAAATA [XGTACX_site8337]	9.21
TATAATAATATTTATTGTACAATTAGGTTAATTCAT [XGTACX_site1986]	9.13
AATCTAATGTAATGCATACACACAACTATCCATCAA [CACACA_site535]	9.53
TAAAATGAAGGAATATGTACATAAATAAACATATAT [XGTACX_site6266]	9.48
AATATACGAAATTGTGCACACATATATTTATGTATG [CACACA_site1510]	9.58
CATATATGATATATTAGTACATATATATATATATAT [XGTACX_site1574]	9.1
CGATATAAAGATATTAGTACATATGCATGCTTGTCT [XGTACX_site8629]	9.32
AAAACATACAGATATACACACATATATATATATATA [CACACA_site5091]	9.53
ATATAGATCTACACTGCACACATTTTTAACACTGCT [CACACA_site1882]	9.66
ATATTTAAACGATGGTGTACATATATTACAAGTTGT [XGTACX_site1743]	9.48
ACGCATGTAATTTATACACACATTCTTTTATATTTT [CACACA_site3708]	9.59
TATACATATATATATACACACATATATATATATACA [CACACA_site402]	9.4
AAATTATTATCGTTAATATGTATATATGTGCCAAGT [TGCATGCA_negctrl_site557]	9.34
GCATTTTAATAATTATGTACATATATTATTCCTGGT [XGTACX_site3664]	9.37
TTCCATCAAAAAATGGGTACACATTATAGAAATATT [XGTACX_site8482]	9.15
AAGAAAAACATTACGTGTACCAAAAGGCCTGTCAAC [XGTACX_site267]	9.64
GTAACAAATAAAATAACACACATGTCGAAATGTATG [CACACA_site2971]	9.7

Sequence	gcPBM binding intensity (ln)
ATAATTATATAAATATATATAATATATATATGAAAA [XGTACX_negctrl_site357]	9.05
AAAATGGGTTAGCACATACACACCAATATATTATAT [CACACA_site3082]	9.59
CAATTAAATATATGAACACACATGTGAACTTTCTAT [CACACA_site3977]	9.41
AAATACCTGATATATACACACTATGTTTTTCTTTTT [CACACA_site6680]	9.62
TATTAAATTATATAGACACACATTATATATATATAT [CACACA_site4345]	9.35
AAAAAGAAATATTTATGTACATAATAATAATATTTT [XGTACX_site4693]	9.07
AATATAGATACATATACACACACACCCATACATATA [CACACA_site9137]	10.1
GTAAGATTTCTTGTTGCATGCGGTAAAAAGTAAAAT [TGCATGCA_site469]	9.21
TAGATAAATGGGTATACACACATATACATAAATATA [CACACA_site375]	9.56
TACACCCACCAACACACACACACACCCAAAAAAAAA [CACACA_site498]	10.1
AACTTTATACTTTTTTGTACTTAACCCTTACATTTT [XGTACX_site5798]	9.63
TTTATGAAACAGTGCACACATAAAAATATATACATA [CACACA_site2992]	9.44
TTTATATATTTATTCACACATATAATATTCCGTCGT [CACACA_site6120]	9.29
TATAGATGTATGTACATACACACATATATAAATAAA [CACACA_site1789]	9.38
TGTTAATTTATATTATGTACTTATAATTATCGTTTG [XGTACX_site1032]	9.38
ATAATTCTAAATAAATGTACACACAAAAATAAATGT [XGTACX_site3547]	9.76
GTTAATTGAAGATTCACACATAAATATATATATAAT [CACACA_site5482]	9.18
TAACGCATGAATATAATATATATATATATAAAAATA [GTGCAC_negctrl_site218]	9.01
